This is an account of results in paper PMC10668032.

The list shows a part of the results. At the low end of the ranking the order means little.

For this assay, the target named is SIX1-Q177R homeodomain (UniProt Q15475). The assay is described as follows: universal protein binding microarray. The conditions noted are these: Universal all-10-mer PBM (8x60K, AMADID 030236), 300 nM GST-tagged protein, Alexa Fluor 488 anti-GST; buffer, salt, pH and temperature not stated; high values mean tight binding; most listed sequences are background and not binding sites; double strand, one strand shown.
Regarding GTCATGCA, the binding signal is -0.00443 E-score.
For AATAACGC the value was -0.0441 E-score.
Regarding ATCAAGCG, the binding signal is -0.0443 E-score.
For ACTGAATC the value was -0.166 E-score.
Under ACATCTTC stands 0.0182 E-score.
With ACCGCCCA, the binding signal was found to be 0.12 E-score.
For the sequence AAGGACTC, the binding signal was -0.161 E-score.
Under ATTTGTAA stands -0.0512 E-score; under GCTGTTCA, -0.324 E-score; under GGTCCATA, -0.00669 E-score.
Under CGGCATGC stands -0.261 E-score.
With GTGACTCA, the binding signal is -0.101 E-score.
For CTTCGCTA the value was -0.145 E-score.
Under AACATCAT stands -0.202 E-score; under ATCAACCG, -0.22 E-score; under AGCCAGAC, -0.197 E-score.
For CTCCCTAA the value was 0.165 E-score.
Consider TGTTCAAA, for which the binding signal amounted to 0.268 E-score.
For CGCCTCCC the value was -0.013 E-score; for ATGAAGAC, -0.066 E-score; for CACTACTA, 0.138 E-score.
As to GATTGACC, the binding signal is 0.029 E-score.
Under ACGTTGAA stands 0.00194 E-score; under CTATACAG, 0.0344 E-score.
Regarding AATGCTCG, the binding signal was -0.191 E-score.
Under AGATTCGC stands -0.151 E-score; under CGCCATTA, 0.0573 E-score; under GAATTATC, -0.261 E-score.
For GCCCCAAA the value was -0.0929 E-score.
For GCCCCCAC the value was -0.00827 E-score; for GGCCGTAA, -0.093 E-score; for CACGACAG, 0.174 E-score.
Consider TCAGGTCA, for which the binding signal is -0.0978 E-score.
Take AACTCTGG: the binding signal was -0.113 E-score.
For AAGTTTAA the value was -0.0388 E-score.
For ACTTTCCA the value was -0.0105 E-score.
On to AAATGTAA, for which the binding signal is -0.173 E-score.
Under CCAGTCGG stands -0.0272 E-score; under ACTCTGGG, 0.0675 E-score; under CGACGACA, 0.0747 E-score.
As for CCTAAACA, the binding signal amounted to 0.121 E-score.
For AGTCAAAC the value was -0.124 E-score; for ATGTCGAG, -0.108 E-score.
On to ATTGTAAG, for which the binding signal is -0.0901 E-score.
For TCTGCCAA the value was -0.234 E-score; for AGATCCGA, -0.192 E-score; for CTATAAGA, -0.178 E-score.
Turning to AGTGAAGA, the binding signal was -0.0248 E-score.
For TTATCCAA the value was -0.135 E-score.
For GGGAGTGA the value was 0.0455 E-score.
For CAGTAAGC the value was -0.0851 E-score; for CCAATTCG, -0.0199 E-score; for CGGTAATC, 0.0446 E-score.
As to ACTAAGAA, the binding signal is -0.0179 E-score.
For ACGATGTA the value was 0.0487 E-score; for CCCGGTCC, -0.101 E-score.
Under CAATCACG stands -0.205 E-score.
Under AAATCTGC stands -0.252 E-score; under AGGTCAAT, -0.161 E-score.
In the case of AATCTTAT, the binding signal is -0.051 E-score.
For CTTTAGGC the value was -0.0485 E-score.
Turning to CGAAGCTC, the binding signal was -0.0697 E-score.
Turning to GCCTCTGA, the binding signal is 0.0284 E-score.
Under AGCAAGCG stands -0.209 E-score; under CAGTGTTA, 0.402 E-score; under CTCACGGA, -0.1 E-score.
As to AATTTCGA, the binding signal was -0.0872 E-score.
For ATAGTGAT the value was -0.0929 E-score; for TACTTCGA, -0.169 E-score; for ACCGACTG, -0.093 E-score.
For AGCAGAGA the value was -0.128 E-score; for CAACCTTG, -0.0406 E-score.
For ACGTTTGG the value was -0.0473 E-score.
With ACCCCTAC, the binding signal was 0.294 E-score.
Under GCGGCAGA stands -0.0824 E-score.
Under ATCCTTTA stands -0.0924 E-score; under AATACTAA, -0.163 E-score; under ACAGCGCA, -0.109 E-score.
For AGTGGGTA the value was 0.151 E-score; for ATCAGTCC, -0.141 E-score; for CACTTGGA, 0.139 E-score.
CCCCGTCC: the binding signal is 0.0843 E-score.
For TAGCAGAA the value was -0.144 E-score.
Under ACTCCTCG stands 0.118 E-score.
For AATCATAT the value was -0.113 E-score; for AGTGCGAT, -0.0903 E-score; for GATGAACA, -0.0636 E-score.
With ATTTGCCA, the binding signal was -0.167 E-score.
Under CCTCGGAG stands 0.0798 E-score; under GACGGTGC, 0.175 E-score; under GTAACTTA, 0.0435 E-score.
Under CACTGATC stands 0.136 E-score; under AGGCGAGA, -0.223 E-score; under ATCTATAG, -0.00374 E-score.
Under AAGGCTTA stands -0.276 E-score; under CGCGCCCG, -0.0876 E-score.
Turning to CGCAGTAG, the binding signal is -0.0157 E-score.
For ATCTAGAT the value was -0.214 E-score.
For ATTCCCGC the value was -0.165 E-score; for ACATTTCC, -0.00185 E-score; for AATATAGT, -0.192 E-score.
For CTTCTGTA the value was -0.155 E-score.
In the case of GGTGTAAC, the binding signal worked out at 0.482 E-score.
For ACTATGCA the value was 0.0836 E-score; for GAGCTTAA, -0.18 E-score.
Under ACACCATA stands 0.459 E-score.
Under ATTTATAA stands -0.0933 E-score; under CCATAACA, 0.214 E-score; under CCTACACA, 0.18 E-score.
With CATACAGA, the binding signal is -0.156 E-score.
For CTTGACCA the value was -0.123 E-score; for AGATAGAG, -0.124 E-score; for ATCGTTAG, -0.0369 E-score.
Take CACATTAG: the binding signal is -0.0111 E-score.
For GGCGCAGA the value was -0.185 E-score.
Take CAAGTACA: the binding signal turned out to be 0.207 E-score.
Under GGCAGGTA stands 0.0271 E-score; under ATATCGGC, -0.127 E-score; under GTGTAAAC, 0.445 E-score.
Under AGCCATAC stands -0.121 E-score.
For AAGTAACC the value was -0.0953 E-score; for AACACCAC, 0.483 E-score.
As for CCTGTGCC, the binding signal was -0.131 E-score.
Under GGCACAGA stands -0.125 E-score.
For AAATCCGG the value was 0.0193 E-score.
For AAATCTAA the value was 0.0496 E-score; for GGATGGCA, -0.0819 E-score; for AGGACTTG, -0.0792 E-score.
Take AATACATA: the binding signal amounted to 0.0735 E-score.
For GCGAAAAC the value was -0.0713 E-score; for ATAGTCAA, -0.239 E-score.
As to AATTCTAA, the binding signal amounted to 0.0392 E-score.
Under AGATTTGA stands -0.121 E-score.
For GTTAACTA the value was -0.00156 E-score; for GTCTGTCA, -0.193 E-score; for GCAAGAGC, -0.103 E-score.
Under ACAGGCAA stands -0.144 E-score; under ACGCGGAT, 0.108 E-score; under CCAACCGG, -0.0307 E-score.
Turning to GCAGGTCC, the binding signal was -0.0616 E-score.
For ACGCGCGT, the binding signal is -0.0765 E-score.
Under TGGTCTAA stands -0.122 E-score; under ACTGATCG, 0.00294 E-score; under CAGTTGAG, -0.179 E-score.
Under AGTAGGCC stands -0.101 E-score.
With TCATGGCA, the binding signal was -0.113 E-score.
As to ACCACGAA, the binding signal turned out to be 0.111 E-score.
On to ATTACTGG, for which the binding signal was -0.149 E-score.
Under CAGGGATC stands 0.181 E-score; under GAAGTTCC, -0.263 E-score.
For the sequence AAGCGGGC, the binding signal was -0.229 E-score.
For GCGGACAA the value was -0.181 E-score; for CACATTCG, 0.0353 E-score; for CCCAGGTA, 0.203 E-score.
As to GAAACCCC, the binding signal stood at 0.181 E-score.
With ACTAACAA, the binding signal was found to be 0.00855 E-score.
Under ACCGGTAG stands 0.0653 E-score; under GGAAGACC, -0.11 E-score.
Under CATAAAGC stands -0.26 E-score.
For GTAGTGAC the value was 0.26 E-score; for GTCGCTCA, -0.112 E-score; for TCTATGAA, -0.0351 E-score.
Consider CCTTAGGC, for which the binding signal stood at 0.092 E-score.
Consider CAGAGAAG, for which the binding signal is -0.19 E-score.
GCATAGGC: the binding signal is -0.146 E-score.
For CAGTACGC the value was 0.0598 E-score.
On to CGCTTTAA, for which the binding signal was -0.0982 E-score.
Under GGGCTACA stands 0.0987 E-score; under AAATTACA, 0.0701 E-score.
For GTGCACCA the value was 0.246 E-score.
For ACGTATAT the value was -0.0722 E-score; for ACCATTCA, 0.129 E-score.
For CCATTCTA, the binding signal came to 0.0416 E-score.
Under ACAGCTGT stands -0.346 E-score; under CTTTTCTC, -0.252 E-score.
For GAACTATA the value was -0.172 E-score.
Take CAGTCCGA: the binding signal is -0.13 E-score.
For GCGTGCAC the value was 0.0793 E-score; for ACCCGAGT, 0.259 E-score.
Under CTAAGTGC stands -0.0858 E-score; under CCATAGCG, 0.044 E-score; under ACGCTCAA, -0.158 E-score.
For AGTCCTAT the value was -0.142 E-score; for CCATTCCC, -0.16 E-score.
Take CACTTAAC: the binding signal turned out to be 0.101 E-score.
Take ACTATGGG: the binding signal worked out at 0.0873 E-score.
Under ATACCACA stands 0.095 E-score; under ATTTGTCC, -0.203 E-score.
For CACGTCAA the value was 0.144 E-score.
For ACCGCCAT, the binding signal was -0.182 E-score.
For ATTCGAGG the value was -0.119 E-score; for AGTTACCA, 0.0232 E-score; for AATGAGGC, -0.038 E-score.
Under ATATATAC stands 0.154 E-score; under CCATGATA, 0.0428 E-score; under ATCACAGC, -0.124 E-score.
Under ACGGCAAG stands 0.0711 E-score.
As to ATCACCTG, the binding signal worked out at 0.00103 E-score.
For TACTACAA the value was -0.0955 E-score; for ATGTGTGC, 0.0297 E-score; for CCAACAAC, 0.211 E-score.
Under CCGGGCAC stands 0.0302 E-score; under CAACCAAG, 0.0319 E-score.
For the sequence CTTCCCTC, the binding signal is -0.105 E-score.
For TATTGAGA the value was -0.0629 E-score; for ACGAAATG, -0.0821 E-score.
For AAGATCAC the value was -0.122 E-score.
Under CTTCGACA stands 0.228 E-score; under AGGAGACA, -0.0261 E-score; under CCGAGCTC, -0.201 E-score.
Turning to ATTAGTAG, the binding signal is -0.0264 E-score.
Under CTTGGTTA stands 0.00343 E-score; under AAGCATCC, -0.238 E-score; under CCAGGAAA, -0.0977 E-score.
For CGGTCCTA the value was -0.0476 E-score.
On to ATTGAATA, for which the binding signal was -0.17 E-score.
For CGGTTGCC the value was -0.139 E-score; for CCATTAGC, -0.0639 E-score; for CGACATCA, -0.0385 E-score.
